Measured values: PubChem BioAssay AID493208 (National Center for Advancing Translational Sciences (NCATS), 2011)
Among all 44,000 compounds or so, about 340 (0.77%) were called active. Another 5% or so got no clear call; they are omitted. Calls follow the shape of the dose curve; as a rule, active = well fitted inhibition curve with a large enough effect; inconclusive = small, poorly fitted or top-dose-only effect; inactive = flat fitted curve, though single readings scatter. Some of the results follow.

Test: Acumen qHTS Assay for Inhibitors of the mTORC1 Signaling Pathway in MEF (Tsc2-/-, p53-/-) Cells: Sytravon;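 also: plate controls were DMSO for no effect and rapamycin for full effect; nearly all actives have a fitted effect of over 50% in size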
Settings: phospho-rpS6 immunofluorescence/PI, 24 h; series mostly up to 38.3 µM; activity change, negative = inhibition: at the top concentration
Method in brief: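 Tsc2-/-, p53-/- MEFs (empty-vector stable line) in DMEM + 10% FBS were treated with compounds 24 h at 37 degree Celsius, fixed, and immunostained for phospho-rpS6 (Alexa-488) with propidium iodide counterstain. Laser-scanning cytometry gave % positive cells, normalized against 7.5 nM rapamycin and DMSO.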

Activity change, negative = inhibition, inactive:
Cc1cccc(N2CCN(C(=O)CN3C(=O)COc4ccc(S(=O)(=O)N5CCCC5)cc43)CC2C)c1 (stereo not drawn) -4.62%
CCn1c(SCC(=O)c2ccccc2)nnc1-c1cccc(Cl)c1 0.247%
CCc1c(CN2CCN(c3ccccc3F)CC2)csc1C -5.97%
Cc1ccc(/C=C/c2onc(C)c2S(=O)(=O)N2CCC(C(=O)NCc3ccc(OC(C)C)cc3)CC2)cc1 0.654%
Cc1ccc(CNC(=O)c2ccccc2NC(=O)c2nsc3ccccc23)cc1 2.45%
COc1cccc(CNCCSc2nnnn2-c2ccccc2)c1OC -1.38%
COc1ccc(-c2c(C)c3ccc(O)c(CN4CCCC4)c3oc2=O)cc1 -2.31%
Cc1nnc(C)n1-c1ccc(C(=O)Nc2cccc(Br)c2)cc1 -1.38%
Cc1c(Cl)cccc1NC(=O)CCCn1nc(C)c2sc3ccccc3c2c1=O -4.97%
COc1cccc(N2CCN(c3c4c(nc5nncn35)CCC4)CC2)c1 -6.87%
Cc1cccc(Cn2cc3c(=O)n(CC(=O)Nc4c(C)cccc4C)nc-3c3cc(F)ccc32)c1 0.506%
CC(C)Sc1nc2sc3c(c2c(=O)n1Cc1ccccc1)CCCC3 2.11%
COC(=O)c1cc2oc3ccccc3c2n1Cc1nc(-c2ccccc2Cl)oc1C 1.57%
CC1(C)CC(=O)c2cc(-c3nc(-c4ccccc4)cs3)c(=O)[nH]c2C1 -0.549%
Cc1ccc(NC(=O)C2CCN(S(=O)(=O)c3c(C)noc3C)CC2)cc1 0.664%
COc1ccc(Nc2nc(-c3cccc(Cl)c3)c3c(n2)-c2ccccc2OC3)cc1 2.46%
CCOc1ccccc1CNC(=O)Cc1ccc(NC(=O)N2CCCCc3ccccc32)cc1 -4.18%
CCOc1ccc(NC(=O)CSc2nc3ccsc3c(=O)n2C(C)CC)cc1 (stereo not drawn) -7.61%
CCOc1ccc(CCNC(=O)CCc2c(C)nc3c(c(C)nn3-c3ccc(C)c(C)c3)c2C)cc1 -0.294%
COc1ccc(-c2noc(N3CCC(C(=O)N4CCN(c5ccccc5OC)CC4)CC3)n2)cc1 11.9%
Cc1cccc2c1-c1sc(C(=O)N3CCN(c4ccccc4)CC3)cc1CO2 -7%
CCCCNS(=O)(=O)c1ccc2nc(-c3cccnc3)cc(C(=O)NCCCOC(C)C)c2c1 -15.8%
Cc1ccc2nc(NCc3ccccc3)c3nnnn3c2c1 1.29%
CCOc1cccc(Nc2nn(-c3ccc(OC(F)(F)F)cc3)nc2C(C)=O)c1 3.06%
CCOC(=O)c1cnc2c(C)c(Cl)ccc2c1NCCc1ccc(OC)c(OC)c1 6.93%
COc1ccccc1CNC(=O)c1cccc(N2CCCS2(=O)=O)c1 2.83%
Cc1ccc(N(CC(=O)NCCc2ccccc2C)S(=O)(=O)N(C)C)cc1 -23.7%
COc1ccccc1CNC(=O)Cn1c(=O)oc2cc(S(=O)(=O)N3CCCC3)ccc21 0.0229%
CCOC(=O)c1ccc(NC(=O)C2CC(=O)NC(=Nc3ccc(C)c(C)c3)S2)cc1 (stereo not drawn) -23.5%
Cc1cccc(NC(=O)Nc2ccc(F)cc2)n1 1.96%
CCCCN(C)CCNC(=O)c1ccc(Cn2c(=O)[nH]c3cc(OC)c(OC)cc3c2=O)cc1 2.07%
COc1cc(-c2nc(S(=O)(=O)c3ccc(Br)cc3)c(N3CCOCC3)o2)cc(OC)c1OC 0.61%
COc1ccc(Br)cc1C(=O)Nc1cccc2ccc(C)nc12 6.89%
CCc1nc2nc(C)cc(Nc3cc(Cl)ccc3C)n2n1 10.2%
CCc1ccc(CNC(=O)c2ccc3c(Cl)c4c(nc3c2)CCCC4)cc1 -8.12%
CCOC(=O)c1cnn(-c2ccc(C(=O)Nc3ccc(OC(F)(F)F)cc3)cc2)c1N 0.532%
Cc1cc(N2CCN(c3cccc(C)c3C)CC2)n2cnnc2n1 -2.41%
CC(=O)Nc1ccc(NC(=O)C2CCCN(S(=O)(=O)c3ccc4c(c3)CCCC(=O)N4)C2)cc1 (stereo not drawn) -2.16%
COc1ccc(Cl)cc1NC(=O)Cn1ncc2c3ccccc3n(C)c2c1=O -1.64%
Cc1ccc2[nH]c3c(=O)n(CC(=O)NCc4ccco4)ncc3c2c1 2.41%
CCCN(Cc1cccs1)C(=O)Nc1cc(Cl)ccc1C -0.576%
Cc1nn(CC(=O)NCc2ccc(F)cc2)c2ccccc12 -7.96%
O=C(NCc1ccc(Cl)cc1)c1ccc2c(Cl)c3c(nc2c1)CCCC3 -3.01%
Cc1ccc(OCCSc2nnc(-c3cccs3)o2)cc1Cl 0.602%
Cc1ccc(C)c(N2CCN(C(=O)CCC(=O)Nc3ccc4nc(N5CCCCC5)cc(C)c4c3)CC2)c1 0%
CC(=O)Nc1ccc(NC(=O)C2CCN(c3c(NC(C)=O)c(C)nn3-c3ccccc3)CC2)cc1 0%
CCOC(=O)c1ccc2nc(C)cc(Nc3cccc(C(=O)O)c3)c2c1 6.97%
CCOC(=O)c1c(C)n(-c2ccccc2)c2ccc(OC(=O)c3ccccc3NC(=O)C(C)C)cc12 2.53%
CCOC(=O)c1cccc(NC(=O)CCCn2nc(C)c3c(C)n(-c4ccccc4)nc3c2=O)c1 -3.84%
Cn1c(SCC(=O)Nc2ccccc2)nnc1-c1ccccc1 -9.69%
COc1ccc(Cl)cc1-n1nnc(-c2nc(-c3ccccc3)no2)c1C 4.77%
COc1ccc2c(c1)c(=O)c(C(=O)c1ccc(C)c(C)c1)cn2CC(=O)Nc1ccc2c(c1)OCCO2 1.08%
Cc1ccc(NC(=O)CCOc2ccccc2)cc1 -5.14%
COC(=O)c1ccc(NC(=O)CCS(=O)(=O)c2ccc(Br)s2)cc1 -18.6%
Cc1nc(N2CCCC2)ncc1C(=O)NCc1cccc(Cl)c1 2.12%
COc1ccccc1N1CCN(C(=O)Cn2c(=O)n3nc(-c4ccc(C)cc4)nc3c3ccccc32)CC1 3.72%
COc1ccc(NC(=O)c2cccc(N3CCCS3(=O)=O)c2)cc1OC 4.11%
COC(=O)c1ccc(NC(=O)CC2C(=O)N(c3cccc(OC)c3)C(=O)N2Cc2ccco2)cc1 (stereo not drawn) -10.8%
COc1ccc(C)cc1NC(=O)CN1c2ccccc2S(=O)(=O)c2ccccc21 -6.47%
COc1ccc(C(=O)CSc2nc(C)cc(C)c2C(=O)Nc2ccccc2C)cc1 -9.01%
Cc1nnc(N2C(=O)c3oc4ccccc4c(=O)c3C2c2ccc(C(C)(C)C)cc2)s1 (stereo not drawn) 0.549%
CCc1ccc(NC(=O)CSc2nc3ccccc3nc2Cc2ccc(C)cc2)cc1 -0.989%
COc1cccc(-c2nc(S(=O)(=O)c3ccccc3)c(N3CCCCC3)o2)c1 -15.3%
